# The other results are listed elsewhere or left out.
# B1: Epa12 (Candida glabrata) (protein)
# chain: MGSSHHHHHHSSGLVPRGSHMLEPDNSLQIFDSFLSNPSKYPLGCSPKITNPKKGLSMELYSYPYRKKGSHPCWDPAYLDPNFPRVGYKKNKLIARVDGVSGDINFNFHPKRQCTPIADYLPPNFNYNEPITTTNFTMLLYGYFKPKVTGLHTFDISADDLLFMNFGAGNAFDCCRRDSTADTFGNYVAWAIWGRRIVRNKLTVRLDKGIYYPLRLFFNNRDYYGQMRLTFKTEHGSERITDFSDYFFSVDDTSEGCPGLITYESECADVKSSTVLETDYITIQAEKE
# Tests used:
# Experiment in all cases: glycan array binding signal (z-score within array); higher = stronger binding
# Conditions in all cases: glycan notation: IUPAC condensed, linker removed
# [1] = target: Neu5Ac(a2-3)Gal(b1-3)]Neu5Ac(a2-3)Gal(b1-4)]GlcNAc
# How it was run: (§1)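 Glycan array data were curated from 3228 arrays in the Consortium for Functional Glycomics database and kept only where the protein sequence was available. Glycan names were converted to IUPAC-condensed notation, and columns mapping to the same glycan were averaged. The binding signal is a within-array Z-score, averaged across arrays of the same protein sequence at different concentrations or buffers and across linkers. Negative Z-scores can be read as non-binding.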
# [2] = target: Neu5Ac(a2-3)Gal(b1-4)Glc
# How it was run: as §1
# [3] = target: Neu5Ac(a2-3)Gal(b1-4)GlcNAc
# How it was run: as §1
# [4] = target: Neu5Ac(a2-3)Gal(b1-4)GlcNAc(b1-2)Man
# How it was run: as §1
# [5] = target: Neu5Ac(a2-3)Gal(b1-4)GlcNAc(b1-2)Man(a1-3)[GlcNAc(b1-4)][Neu5Ac(a2-3)Gal(b1-4)GlcNAc(b1-2)Man(a1-6)]Man(b1-4)GlcNAc(b1-4)GlcNAc
# How it was run: as §1
# [6] = target: Neu5Ac(a2-3)Gal(b1-4)GlcNAc(b1-2)Man(a1-3)[Neu5Ac(a2-3)Gal(b1-4)GlcNAc(b1-2)Man(a1-6)]Man(b1-4)GlcNAc(b1-4)GlcNAc
# How it was run: as §1
# [7] = target: Neu5Ac(a2-3)Gal(b1-4)GlcNAc(b1-2)Man(a1-3)[Neu5Ac(a2-3)Gal(b1-4)GlcNAc(b1-2)Man(a1-6)]Man(b1-4)GlcNAc(b1-4)[Fuc(a1-6)]GlcNAc
# How it was run: as §1
# [8] = target: Neu5Ac(a2-3)Gal(b1-4)GlcNAc(b1-2)Man(a1-3)[Neu5Ac(a2-6)Gal(b1-4)GlcNAc(b1-2)Man(a1-6)]Man(b1-4)GlcNAc(b1-4)GlcNAc
# How it was run: as §1
# [9] = target: Neu5Ac(a2-3)Gal(b1-4)GlcNAc(b1-2)[Neu5Ac(a2-3)Gal(b1-4)GlcNAc(b1-4)]Man(a1-3)[GlcNAc(b1-4)][Neu5Ac(a2-3)Gal(b1-4)GlcNAc(b1-2)[Neu5Ac(a2-3)Gal(b1-4)GlcNAc(b1-6)]Man(a1-6)]Man(b1-4)GlcNAc(b1-4)GlcNAc
# How it was run: as §1
# [10] = target: Neu5Ac(a2-3)Gal(b1-4)GlcNAc(b1-2)[Neu5Ac(a2-3)Gal(b1-4)GlcNAc(b1-4)]Man(a1-3)[GlcNAc(b1-4)][Neu5Ac(a2-3)Gal(b1-4)GlcNAc(b1-4)Man(a1-6)]Man(b1-4)GlcNAc(b1-4)GlcNAc
# How it was run: as §1
# [11] = target: Neu5Ac(a2-3)Gal(b1-4)GlcNAc(b1-2)[Neu5Ac(a2-3)Gal(b1-4)GlcNAc(b1-6)]Man(a1-6)[Neu5Ac(a2-3)Gal(b1-4)GlcNAc(b1-2)Man(a1-3)][GlcNAc(b1-4)]Man(b1-4)GlcNAc(b1-4)GlcNAc
# How it was run: as §1
# [12] = target: Neu5Ac(a2-3)Gal(b1-4)GlcNAc(b1-3)Gal
# How it was run: as §1
# [13] = target: Neu5Ac(a2-3)Gal(b1-4)GlcNAc(b1-3)Gal(b1-3)GlcNAc
# How it was run: as §1
# [14] = target: Neu5Ac(a2-3)Gal(b1-4)GlcNAc(b1-3)Gal(b1-4)GlcNAc
# How it was run: as §1
# [15] = target: Neu5Ac(a2-3)Gal(b1-4)GlcNAc(b1-3)Gal(b1-4)GlcNAc(b1-2)Man(a1-3)[Neu5Ac(a2-3)Gal(b1-4)GlcNAc(b1-3)Gal(b1-4)GlcNAc(b1-2)Man(a1-6)]Man(b1-4)GlcNAc(b1-4)GlcNAc
# How it was run: as §1
# [16] = target: Neu5Ac(a2-3)Gal(b1-4)GlcNAc(b1-3)Gal(b1-4)GlcNAc(b1-3)Gal(b1-4)GlcNAc
# How it was run: as §1
# [17] = target: Neu5Ac(a2-3)Gal(b1-4)GlcNAc(b1-3)Gal(b1-4)GlcNAc(b1-3)Gal(b1-4)GlcNAc(b1-2)Man(a1-3)[Neu5Ac(a2-3)Gal(b1-4)GlcNAc(b1-3)Gal(b1-4)GlcNAc(b1-3)Gal(b1-4)GlcNAc(b1-2)Man(a1-6)]GalNAc
# How it was run: as §1
# [18] = target: Neu5Ac(a2-3)Gal(b1-4)GlcNAc(b1-3)Gal(b1-4)GlcNAc(b1-3)GalNAc
# How it was run: as §1
# [19] = target: Neu5Ac(a2-3)Gal(b1-4)GlcNAc(b1-3)Gal(b1-4)GlcNAc(b1-3)[Neu5Ac(a2-3)Gal(b1-4)GlcNAc(b1-3)Gal(b1-4)GlcNAc(b1-6)]GalNAc
# How it was run: as §1
# [20] = target: Neu5Ac(a2-3)Gal(b1-4)GlcNAc(b1-3)Gal(b1-4)GlcNAc(b1-6)[Gal(b1-3)]GalNAc
# How it was run: as §1
# [21] = target: Neu5Ac(a2-3)Gal(b1-4)GlcNAc(b1-3)Gal(b1-4)[Fuc(a1-3)]GlcNAc
# How it was run: as §1
# [22] = target: Neu5Ac(a2-3)Gal(b1-4)GlcNAc(b1-3)GalNAc
# How it was run: as §1
# [23] = target: Neu5Ac(a2-3)Gal(b1-4)GlcNAc(b1-3)[Neu5Ac(a2-3)Gal(b1-4)GlcNAc(b1-6)]GalNAc
# How it was run: as §1
# [24] = target: Neu5Ac(a2-3)Gal(b1-4)GlcNAc(b1-6)GalNAc
# How it was run: as §1
# [25] = target: Neu5Ac(a2-3)Gal(b1-4)GlcNAc(b1-6)[Gal(b1-3)]GalNAc
# How it was run: as §1
# [26] = target: Neu5Ac(a2-3)Gal(b1-4)GlcNAc(b1-6)[Neu5Ac(a2-3)Gal(b1-3)]GalNAc
# How it was run: as §1
# [27] = target: Neu5Ac(a2-3)Gal(b1-4)GlcNAc6S
# How it was run: as §1
# [28] = target: Neu5Ac(a2-3)Gal(b1-4)[Fuc(a1-3)]GlcNAc
# How it was run: as §1
# [29] = target: Neu5Ac(a2-3)Gal(b1-4)[Fuc(a1-3)]GlcNAc(b1-2)Man
# How it was run: as §1
# [30] = target: Neu5Ac(a2-3)Gal(b1-4)[Fuc(a1-3)]GlcNAc(b1-3)Gal
# How it was run: as §1
# [31] = target: Neu5Ac(a2-3)Gal(b1-4)[Fuc(a1-3)]GlcNAc(b1-3)Gal(b1-4)GlcNAc
# How it was run: as §1
# [32] = target: Neu5Ac(a2-3)Gal(b1-4)[Fuc(a1-3)]GlcNAc(b1-3)Gal(b1-4)[Fuc(a1-3)]GlcNAc(b1-3)Gal(b1-4)[Fuc(a1-3)]GlcNAc
# How it was run: as §1
# [33] = target: Neu5Ac(a2-3)Gal(b1-4)[Fuc(a1-3)]GlcNAc(b1-3)GalNAc
# How it was run: as §1
# [34] = target: Neu5Ac(a2-3)Gal(b1-4)[Fuc(a1-3)]GlcNAc(b1-6)[Gal(b1-3)]GalNAc
# How it was run: as §1
# [35] = target: Neu5Ac(a2-3)Gal(b1-4)[Fuc(a1-3)]GlcNAc(b1-6)[Neu5Ac(a2-3)Gal(b1-3)]GalNAc
# How it was run: as §1
# [36] = target: Neu5Ac(a2-3)Gal(b1-4)[Fuc(a1-3)]GlcNAc6S
# How it was run: as §1
# [37] = target: Neu5Ac(a2-3)Gal6S(b1-4)GlcNAc
# How it was run: as §1
# [38] = target: Neu5Ac(a2-3)Gal6S(b1-4)[Fuc(a1-3)]GlcNAc
# How it was run: as §1
binder,measurement,setting,value
B1,glycan array binding signal (z-score),[1],-0.365
same,glycan array binding signal (z-score),[2],-0.204
same,glycan array binding signal (z-score),[3],-0.321
same,glycan array binding signal (z-score),[4],-0.131
same,glycan array binding signal (z-score),[5],-0.307
same,glycan array binding signal (z-score),[6],-0.322
same,glycan array binding signal (z-score),[7],-0.361
same,glycan array binding signal (z-score),[8],-0.367
same,glycan array binding signal (z-score),[9],-0.406
same,glycan array binding signal (z-score),[10],-0.361
same,glycan array binding signal (z-score),[11],-0.401
same,glycan array binding signal (z-score),[12],-0.315
same,glycan array binding signal (z-score),[13],-0.366
same,glycan array binding signal (z-score),[14],-0.324
same,glycan array binding signal (z-score),[15],-0.038
same,glycan array binding signal (z-score),[16],-0.254
same,glycan array binding signal (z-score),[17],-0.239
same,glycan array binding signal (z-score),[18],-0.275
same,glycan array binding signal (z-score),[19],-0.296
same,glycan array binding signal (z-score),[20],-0.298
same,glycan array binding signal (z-score),[21],-0.658
same,glycan array binding signal (z-score),[22],-0.373
same,glycan array binding signal (z-score),[23],-0.304
same,glycan array binding signal (z-score),[24],-0.311
same,glycan array binding signal (z-score),[25],-0.21
same,glycan array binding signal (z-score),[26],-0.387
same,glycan array binding signal (z-score),[27],-0.262
same,glycan array binding signal (z-score),[28],-0.322
same,glycan array binding signal (z-score),[29],-0.321
same,glycan array binding signal (z-score),[30],-0.298
same,glycan array binding signal (z-score),[31],-0.251
same,glycan array binding signal (z-score),[32],-0.37
same,glycan array binding signal (z-score),[33],-0.242
same,glycan array binding signal (z-score),[34],-0.245
same,glycan array binding signal (z-score),[35],-0.261
same,glycan array binding signal (z-score),[36],-0.311
same,glycan array binding signal (z-score),[37],0.562
same,glycan array binding signal (z-score),[38],-0.338
